Data as given in PubChem BioAssay AID1347073 (National Center for Advancing Translational Sciences (NCATS), 2019).
In all, about 45,000 compounds went through this assay and about 200 (0.44%) were called active. Inconclusive results, whose numbers are uncertain, are shown with a selection of clear calls. Calls come from the whole dose curve; as a rule, active = well fitted activation curve with a large enough effect; inconclusive = small, poorly fitted or top-dose-only effect; inactive = no such curve, though single readings can be large or run the other way. Potencies of inconclusive entries are doubtful fits and often do not repeat.

test: qHTS of TDP-43 Inhibitors: NCGC Sytravon Library Screen; settings: yeast TDP-43 toxicity rescue, BacTiter-Glo growth, 24 h; growth rescue (activation): at 46.1 µM (top of the series); note: nearly all actives have a fitted effect of over 55% in size; for growth rescue (activation): 0% is about no effect
In short: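 TDP-43-expressing yeast, pregrown in raffinose, seeded at OD600 0.02 in galactose medium with compound for 24 hr at 30 deg C. Growth read by BacTiter-Glo luminescence, so rescue of toxicity appears as activation.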
Potency is the fitted concentration of half-maximal effect; tags give direction and shape of the fitted curve.

Row | SMILES | growth rescue (activation) | Potency
1 | COc1ccc(F)cc1-c1cc(C(=O)NCc2cccc(Cl)c2)[nH]n1 | inconclusive: 151% [activator] | 
2 | COc1cc(C(O)c2nc(-c3ccc(F)cc3OC)cs2)ccc1F (centres undefined) | inconclusive: 140% [activator] | 
3 | CCOc1ccc(S(=O)(=O)NCCC(=O)Nc2nnc(C)s2)cc1 |  | inactive
4 | Cc1occc1-c1nnc(SCC(=O)N(C)c2ccccc2)o1 |  | inconclusive: 22.4 µM [activator, partial curve, poor fit]
5 | COc1ccc2cc(C(=O)/C=C/c3cc(OC)c(O)c(OC)c3)ccc2c1 |  | inconclusive: 25.1 µM [activator, partial curve, poor fit]
6 | Cc1nn(-c2ccccc2)c(N2CCCC2)c1/C=N/NC(=S)Nc1ccc(F)cc1 |  | inconclusive: 35.5 µM [activator, single point]
7 | CCOC(=O)C1=C(O)c2ccccc2C(=O)/C1=C\c1ccc(C)cc1 |  | inconclusive: 3.16 µM [activator, partial curve, poor fit]
8 | CC(C)c1ccc(S(=O)(=O)N2CCN(C(=S)NCc3ccco3)CC2)cc1 |  | inconclusive: 15.8 µM [activator, partial curve, poor fit]
9 | O=C(Cc1c(Cl)cccc1Cl)Nc1cccnc1 |  | inactive
10 | Cc1cc(C)cc(N=c2c([N+](=O)[O-])nn(-c3ccc4c(c3)OCCO4)n2O)c1 |  | inconclusive: 12.6 µM [activator, partial curve]
11 | CNC(=O)N(O)C1N(/N=C/c2ccccc2O)C(=S)SC1(C)C (centres undefined) |  | inconclusive: 22.4 µM [activator, single point]
12 | CCOC(=O)/C(=N\Nc1ccccc1Cl)N(C)C1CCS(=O)(=O)C1 (centres undefined) |  | inactive
13 | COc1ccc(C(C)(C)C)cc1NC(=O)c1ccc2ncsc2c1 |  | inconclusive: 10 µM [activator, partial curve, poor fit]
14 | COc1ccc(C(C)(O)c2nc(-c3ccc(C)c(C)c3)cs2)cc1 (centres undefined) | inconclusive: 112% [activator] | 
15 | Cc1ccc(C(=O)/C=C/c2ccc3c(c2)OCCO3)c(O)c1 |  | inconclusive: 20 µM [activator, partial curve, poor fit]
16 | CC(Sc1ccc2ccccc2n1)C(=O)O (centres undefined) |  | inconclusive: 22.4 µM [activator, single point]
17 | CCC1(c2ccccc2)NC(=S)N(c2ccc(C)cc2)N1 (centres undefined) |  | inconclusive: 10 µM [activator, partial curve, poor fit]
18 | CCN(CC)c1ccc(C(=O)OCC(=O)NC(C)(C)C)cc1 |  | inconclusive: 35.5 µM [activator, single point]
19 | COc1cc2c(cc1NC(=O)COc1cc(C)ccc1C)oc1ccccc12 |  | inactive
20 | Cc1cccc(S(=O)(=O)Nc2cccc(-c3cn4ccsc4n3)c2)c1 |  | inconclusive: 20 µM [activator, single point]
21 | Cc1ccc(NC(=O)CSCc2cnn(-c3ccccc3)c2-n2cccc2)c(C)c1 |  | inconclusive: 20 µM [activator, single point]
22 | Cc1occc(=O)c1OC(=O)Nc1ccc(Cl)c(Cl)c1 |  | inconclusive: 3.16 µM [activator, full curve]

Row | SMILES | growth rescue (activation) | Potency
23 | O=C(c1cc(C2CC2)nn1-c1ccccc1)N1CCN(c2ccccc2O)CC1 |  | inconclusive: 22.4 µM [activator, partial curve, poor fit]
24 | Cc1csc(NC(=O)[C@@H]2CCCN2C(=O)c2cccs2)n1 |  | inactive
25 | COc1cccc(/C=N/NC(=O)N/N=C/c2cccc(OC)c2O)c1O |  | inactive
26 | COc1cc(C(=O)N2CCCC(c3cc(C(=O)NCc4ccccc4)no3)C2)cc(OC)c1C (centres undefined) | inconclusive: 33.6% [activator] | 
27 | CC(C)S(=O)(=O)N1CCCC(c2cc(C(=O)Nc3ccc(F)c(Cl)c3)no2)C1 (centres undefined) |  | inconclusive: 35.5 µM [activator, single point]
28 | Cc1ccc(C)c(S(=O)(=O)NCCCc2ccccc2)c1 |  | inactive
29 | CC1=C(C(=O)Nc2cccc(C)c2C)C2(CCCCC2)OC1=O |  | inactive
30 | COc1cccc(OCCSc2nnc3sc4ccccc4n23)c1 |  | inconclusive: 20 µM [activator, partial curve, poor fit]
31 | CN(CC(=O)Nc1ccc2c(c1)CCC2)CC(=O)Nc1ccccc1Br |  | inconclusive: 35.5 µM [activator, single point]
32 | O=C(NC(=S)Nc1ccccc1O)c1ccc(Cl)cc1Cl |  | inconclusive: 22.4 µM [activator, single point]
33 | CCN(c1cccc(C)c1)C1C(=O)c2ccccc2N1C(C)=O (centres undefined) |  | inactive
34 | CN(CCCC1CCCC1)C(=O)CCc1nnc(-c2ccccc2)o1 |  | inconclusive: 14.1 µM [activator, single point]
35 | Cc1nc(N2CCOCC2)c2c(C)c(C(=O)Nc3ccc(C(F)(F)F)cc3)sc2n1 |  | inconclusive: 25.1 µM [activator, single point]
36 | Cc1ccc(C2CCN(C(=O)Nc3ccc(F)cc3)C2)cc1 (centres undefined) |  | inconclusive: 11.2 µM [activator, partial curve, poor fit]
37 | O=C(NCc1ccccc1)/C(=C/c1ccc(OC(F)F)cc1)c1ccccc1 |  | inconclusive: 20 µM [activator, partial curve, poor fit]
38 | CCCCc1c(C)nc2ccc(OC)cc2c1SCCC(=O)O |  | inconclusive: 35.5 µM [activator, single point]
39 | O=C(CSc1ccc2c(c1)OCCO2)Nc1ccc2c(c1)OCO2 |  | inconclusive: 22.4 µM [activator, partial curve, poor fit]
40 | N#Cc1ccccc1NC(=O)CSc1nnc(N)s1 |  | inactive
41 | CCOc1ccc(NC(=O)CCSc2ccc(C)cc2)cc1 |  | inconclusive: 4.47 µM [activator, full curve]
42 | Cc1ccc(-n2nc(C)c3cc(C(=O)O)sc32)cc1 |  | inconclusive: 17.8 µM [activator, single point]
43 | CCc1nnc(NC(=O)c2cc(Cl)ccn2)s1 |  | inconclusive: 25.1 µM [activator, single point]
44 | CS(=O)(=O)c1nc(-c2ccccc2)cc(C(F)(F)F)n1 |  | inconclusive: 35.5 µM [activator, partial curve, poor fit]
